# Source: PubChem BioAssay AID1347073 (National Center for Advancing Translational Sciences (NCATS), 2019)
# The whole screen tested about 45,000 compounds, of which about 200 (0.44%) were called active. Roughly 7% stayed inconclusive and do not appear here. Calls come from the whole dose curve; as a rule, active = well fitted activation curve with a large enough effect; inconclusive = small, poorly fitted or top-dose-only effect; inactive = no such curve, though single readings can be large or run the other way. Some of the results follow.
# Test: qHTS of TDP-43 Inhibitors: NCGC Sytravon Library Screen; note: 0% is about no effect; nearly all actives have a fitted effect of over 55% in size
# Conditions: yeast TDP-43 toxicity rescue, BacTiter-Glo growth, 24 h; series mostly up to 46.1 µM; growth rescue (activation): at the top concentration
# Summary of the method: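 TDP-43-expressing yeast, pregrown in raffinose, seeded at OD600 0.02 in galactose medium with compound for 24 hr at 30 deg C. Growth read by BacTiter-Glo luminescence, so rescue of toxicity appears as activation.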
row,SMILES,growth rescue (activation)
1,COc1cccc(C(=O)N(Cc2ccc(C)o2)C2CCS(=O)(=O)C2)c1 (stereo not drawn),inactive: 6.06%
2,CSc1ccccc1NC(=O)CN(C)C(=O)COc1ncnc2ccccc12,inactive: 25.3%
3,COC(=O)[C@@H](NC(=O)NCCC1=CCCCC1)C(C)C,inactive: -8.46%
4,CC(C)Oc1ccc(F)cc1-c1cc(C(=O)NCc2cc(C(F)(F)F)cc(C(F)(F)F)c2)[nH]n1,inactive: -0.303%
5,Cc1nnsc1NC(=O)OCc1ccc(C(F)(F)F)cc1,inactive: 7.48%
6,O=C(Cc1ccccc1)NNS(=O)(=O)c1ccccc1[N+](=O)[O-],inactive: 2.85%
7,CCCCOc1ccc(C(=O)NCC(=O)NC2CC2)cc1,inactive: 22.2%
8,COc1ccc(NC(=S)N2CCC(N(C)CC3CCCO3)CC2)cc1 (stereo not drawn),inactive: -0.628%
9,O=C(Nc1cccc2ccccc12)N1CCN(c2ccc(F)cc2)CC1,inactive: 0.003%
10,CN(C)c1cc(Nc2cccc(O)c2)c([N+](=O)[O-])c2nonc12,inactive: -5.55%
11,O=C(/C=C/c1cccs1)N1CCCCC1,inactive: -8.02%
12,Cc1cccc(N(C(=O)Cn2nnc(-c3ccc(F)cc3)n2)C(C(=O)NC(C)(C)C)c2ccncc2)c1 (stereo not drawn),inactive: -14.1%
13,Cc1nc(NCc2cccnc2)c2c3c(sc2n1)CC(C)CC3 (stereo not drawn),inactive: 2.36%
14,COc1ccc(S(=O)(=O)N(C)C)cc1NC(=O)CSc1nc(N)cc(N)n1,inactive: 12.3%
15,COCCCNCC#CCOc1ccc(OC)cc1,inactive: 4.91%
16,CCc1ccccc1N(CC(=O)NCc1ccco1)C(=O)CCC(=O)Nc1ccccn1,inactive: 9.03%
17,OC[C@@H]1CN(CCN2CCOCC2)C[C@H](n2cnc3c(NC4CC4)ncnc32)O1,inactive: -16.2%
18,COc1cc(NC(=O)c2cc(C)no2)cc(OC)c1OC,inactive: 4.47%
19,OC1(c2ccc(Cl)c(Cl)c2)C[n+]2ccccc2N1Cc1ccccc1 (stereo not drawn),inactive: -27%
20,COc1ccc(S(=O)(=O)c2cnc3ccccc3n2)cc1,inactive: 18%
21,Cc1cccc(NC(=S)NC(=O)/C=C/c2ccccc2)n1,inactive: 1.61%
22,Cc1cccc(C)c1NC(=O)CNC(=O)c1c(C)nn(C)c1Cl,inactive: 3.57%
23,Cc1ccccc1CN1CCNC(=O)C1CC(=O)NCCN1CCCCC1=O (stereo not drawn),inactive: 15.6%
24,COc1ccccc1-c1noc(-c2ccccc2C(=O)NCc2ccco2)n1,inactive: 4.32%
25,O=C(Cc1nnc(NC(=O)Nc2ccc(F)cc2)s1)NCc1ccccc1,inactive: 4.65%
26,NS(=O)(=O)c1ccc(NC(=O)COC(=O)CCCN2C(=O)c3cccc4cccc(c34)C2=O)cc1,inactive: -6.49%
27,CCS(=O)(=O)N1CCC(C(=O)NCc2ccc3c(c2)OCO3)CC1,inactive: 3.02%

row,SMILES,growth rescue (activation)
1,Cc1[nH]c2ccccc2c1/C=N/NC(=O)C1CC1(c1ccccc1)c1ccccc1 (stereo not drawn),inactive: -12%
2,CN(C)C(=O)CSc1ccc(S(=O)(=O)N2CCCC2)cn1,inactive: 21.2%
3,CC(C)C(=O)Nc1sc2c(c1-c1nc3ccccc3[nH]1)CCCC2,inactive: 6.9%
4,COc1cc(NC(=S)NN2CCOCC2)cc(OC)c1,inactive: 18.8%
5,CC(C)COC(=O)N1CCCC(c2cc(C(=O)Nc3ccccc3Cl)no2)C1 (stereo not drawn),inactive: 24.2%
6,COc1ccc(/C=N/NC(=O)c2cc(C)oc2C)cc1OC,inactive: 5.05%
7,NC(=O)c1ccsc1NC(=O)CSc1nnc2ccccn12,inactive: -4.57%
8,Cc1ccc(OCc2cccc(S(=O)(=O)N(C)C)c2)c([N+](=O)[O-])n1,inactive: 21.2%
9,COC(=O)CC1C(=O)NC2CCCCC2N1C(=O)CCl (stereo not drawn),inactive: 2.16%
10,Cc1nc(C(=O)O)nn1-c1cc(Cl)ccc1Cl,inactive: 0.0992%
11,CC(C)CC1=C/C(=C/c2ccc(-c3ccccc3)o2)C(=O)O1,inactive: 2.87%
12,COc1ccc(OC)c(NC(=O)CSc2ncnc3sc(C)cc23)c1,inactive: -1.18%
13,CCOC(=O)N1CCN(c2ccc([N+](=O)[O-])cc2)CC1,inactive: 19.1%
14,CC(C)Oc1cccc(C(=O)NC(=S)Nc2cccc(NC(=O)c3ccccc3Cl)c2)c1,inactive: 4.69%
15,CCNc1nc(SC(C(C)=O)C(C)=O)nc(N(C)C)n1,inactive: 18.7%
16,NS(=O)(=O)c1ccc(NC(=O)c2cc(Cl)ccc2Cl)cc1,inactive: -26.2%
17,O=c1[nH]c(=S)[nH]c2c1C(c1ccc(Br)cc1)c1c([nH]c(=S)[nH]c1=O)O2,inactive: -12.6%
18,COc1ccccc1-c1noc(CCCC(=O)NC2CCCCC2)n1,inactive: -9.19%
19,Cc1ccc(S(=O)(=O)N2CCCCC2)cc1NC(=O)CSc1nnnn1C,inactive: -26%
20,COc1ccc(CNC(=O)c2ccc(Cn3nc(C)c([N+](=O)[O-])c3C)o2)cc1,inactive: 6.01%
21,CCOC(=O)C1(C)CCN1C(=O)c1cc(F)ccc1C (stereo not drawn),inactive: 11.1%
22,CC(=O)N1CCN(C(=O)C2(NC(=O)Nc3ccccc3Cl)CCCCC2)CC1,inactive: 10.3%
23,Nc1ccc2nc(Cc3ccccc3)[nH]c2c1,inactive: -7.78%
24,NNc1nc2sc3c(c2c(=O)n1-c1ccccc1)CCCC3,inactive: 2.22%
25,CCOc1cccc(-c2cc(N3CCN(CCO)CC3)n3nccc3n2)c1,inactive: 7.01%
26,CCOc1ccc(S(=O)(=O)N(CC)CC(=O)NCc2ccncc2)cc1,inactive: -2.5%
